Data reported in US20110229476A1 (Bayer, published 2011).

Molecular target: T1, tumor-associated antigen RG1 (Homo sapiens (Human), UniProt Q9BUD6 27-331)
T1 construct: Coated directly on 96-well plates at 1 ug/ml; also called RGI
T1 sequence: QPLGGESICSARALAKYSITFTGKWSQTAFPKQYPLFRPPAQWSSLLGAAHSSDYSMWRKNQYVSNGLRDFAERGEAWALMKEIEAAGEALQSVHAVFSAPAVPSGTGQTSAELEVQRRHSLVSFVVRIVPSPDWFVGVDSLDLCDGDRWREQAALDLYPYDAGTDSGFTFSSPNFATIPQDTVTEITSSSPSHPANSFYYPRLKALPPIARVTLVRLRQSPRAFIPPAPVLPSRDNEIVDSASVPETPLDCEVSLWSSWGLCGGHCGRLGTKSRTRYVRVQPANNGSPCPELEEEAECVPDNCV
Experiment: RG1-binding ELISA, RG1 coated on plate, 4-parameter fit

IC50: 1.1 nM
B1: 3E10-Linker1-19G9 IgG-like bispecific antibody (bispecific antibody)
light: NFMLTQPHSVSASPGKTVTISCTRSSGSVASYYVQWYQQRPGSSPTTVIYEDNHRPSGVPDRFSGSIDTSSNSASLTISGLKTEDEADYYCQSYDSNNLVVFGGGTKLTVLGASDDDDK[sequence of about 200 residues omitted]
heavy: QVNLRESGGTLVQPGGSLRLSCAASGFSFTDAWMSWVRQAPGKELEWVSSISGSGGSTYYAGSVKGRFTISRDNSKNTLYLQMNSLRAEDTAVYYCARVLSLTDYYWYGMDVWGQGTLVTVSASDDDDKEVQLVQSGGGLVQPGGSLRLSCAGSGFTFSSYVMHWLRQAPGKGLEWVSVIGTGGVTHYADSVKGRFTISRDNAKNSLYLQMNSLRAEDTAVYYCARWGYYGSGSYENDAFDIWGQGTMVTVSSASTKGPSVFPLAPSSKSTSGGTAALGCLVKDYFPEPVTVSWNSGALTSGVHTFPAVLQSSGLYSLSSVVTVPSSSLGTQTYICNVNHKPSNTKVDKRV[sequence of human IgG1 Fc omitted]
notes: VL3E10-linker-VL19G9-Ckappa and VH3E10-linker-VH19G9-human IgG1 constant region; expressed in CHO-S cells; also called 3E10-Linkerl-19G9
